Assay results reported in PubChem BioAssay AID1159614 (National Center for Advancing Translational Sciences (NCATS), 2016).
Hit rate of the full screen: of about 45,000 compounds, about 65 (0.1%) were called active. Calls follow the shape of the dose curve; as a rule, active = well fitted activation curve with a large enough effect; inconclusive = small, poorly fitted or top-dose-only effect; inactive = no such curve, though single readings can be large or run the other way. The list shows a part of the results.

target: Galactocerebrosidase (Homo sapiens) (UniProt P54803); assay: A Novel Cell-Based Assay to Identify Small Molecules for B -Galactocerebrosidase; conditions: 145M-Twi-hGALC-G270D cells (Twitcher mouse brain line with human GALC G270D), HMU-beta-Gal fluorescence, 48 h; series mostly up to 57.5 µM; activation: at the top concentration; also: 0% is about no effect; nearly all actives have a fitted effect of over 65% in size
Chain of UniProt P54803 (P54803 whole entry, looked up): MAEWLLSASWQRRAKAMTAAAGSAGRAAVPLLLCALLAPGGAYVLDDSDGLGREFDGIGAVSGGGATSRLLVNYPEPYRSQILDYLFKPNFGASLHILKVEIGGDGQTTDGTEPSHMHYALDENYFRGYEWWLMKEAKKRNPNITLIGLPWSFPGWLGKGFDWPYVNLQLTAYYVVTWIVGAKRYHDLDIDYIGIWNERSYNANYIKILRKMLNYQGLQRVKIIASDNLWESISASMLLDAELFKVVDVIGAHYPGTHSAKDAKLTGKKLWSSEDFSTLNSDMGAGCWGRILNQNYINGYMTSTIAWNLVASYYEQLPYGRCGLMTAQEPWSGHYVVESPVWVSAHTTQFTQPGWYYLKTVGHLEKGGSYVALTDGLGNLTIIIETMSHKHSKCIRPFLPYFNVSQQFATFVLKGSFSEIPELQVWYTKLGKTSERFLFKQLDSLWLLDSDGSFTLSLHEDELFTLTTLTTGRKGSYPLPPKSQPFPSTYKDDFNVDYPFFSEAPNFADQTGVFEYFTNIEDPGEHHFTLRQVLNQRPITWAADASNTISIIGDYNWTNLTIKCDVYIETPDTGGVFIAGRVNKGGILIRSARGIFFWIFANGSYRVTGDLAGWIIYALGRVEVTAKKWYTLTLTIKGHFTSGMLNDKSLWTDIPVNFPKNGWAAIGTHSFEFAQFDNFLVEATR
In short: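 Mutant human GALC (G270D), stably expressed in a Twitcher mouse brain cell line lacking endogenous GALC, is measured in live-treated cells via 6-hexadecanoylamino-4-methylumbelliferyl-β-galactoside hydrolysis (0.1 mM final, pH 5.2) with fluorescent detection.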

activation, inactive:
COc1ccc(N2CCN(C(=O)C3CCN(S(=O)(=O)c4cn(C)cn4)CC3)CC2)cc1 -13.5%, Cc1ccc(C(=O)Nc2ccccc2)cc1S(=O)(=O)Nc1ccccc1 -11.9%, COC(=O)c1c(C)oc2ccc(N(C(=O)c3ccncc3)S(=O)(=O)c3cc(C)ccc3C)cc12 -4.65%, Cc1ccc(NC(=O)C2CCC(CNS(=O)(=O)c3cccc4nsnc34)CC2)c(Cl)c1 (stereo not drawn) -25.3%, CCOC(=O)c1cnc2cc(F)c(F)cc2c1Nc1ccccc1O -3.86%, Cc1cccc(C(=O)Nc2sc3c(c2C(=O)NC(C)C)CCCC3)c1 4.49%, Cn1c(=O)c2c(nc(NCCc3ccccc3)n2Cc2ccc(Cl)cc2)n(C)c1=O 4.89%, CCOC(=O)c1cc(S(=O)(=O)NCc2cccc(Cl)c2)[nH]n1 -28.7%, COc1cc(OC)c(NC(=O)c2noc3c2CSc2ccccc2-3)cc1Cl -7.22%, CCCCn1c(SCC(=O)Nc2ccc(OCC)cc2)nc2ccsc2c1=O -3.59%, CC(=O)c1ccc(N2CCN(C(=O)CCc3nnc4n(C)c(=O)c5sccc5n34)CC2)cc1 0.424%, CCc1ccccc1NC(=O)[C@@H](c1ccccc1)N1Cc2ccccc2C1=O -10.1%, Cc1ccc(NC(=O)CCCn2c(=O)c3cccn3c3cccnc32)cc1C -14.9%, Cc1ncc(CO)c(CO)c1O -13%, Cc1ccc(CNC(=O)CSc2ncc3c(n2)-c2ccc(Cl)cc2N(Cc2ccccc2)S3(=O)=O)cc1 -5.38%, Cc1ccc(NS(=O)(=O)c2cc3[nH]c(=O)c(=O)[nH]c3cc2C)cc1N(C)C -17.9%, Cc1ccc(C)c(NC(=O)CSc2nnc(-c3cc4occc4n3C)n2-c2ccccc2C)c1 -13.8%, Nc1nnnn1-c1ccccc1 -8.48%, COc1ccc(C(=O)COC(=O)CCCC(=O)Nc2cc(C(F)(F)F)ccc2Cl)cc1 -9.23%, COC(=O)c1cc(Cl)ccc1NC(=O)CSc1ncc(S(=O)(=O)c2ccc(Br)cc2)c(=O)[nH]1 -12.6%, O=C(Nc1ccc(Br)cc1F)N1CCC(CN2CCc3ccccc3C2)CC1 -5.64%, CC(C)CC(=O)Nc1ccccc1OCc1cc(=O)n2ccccc2n1 -3.76%, CC(=O)N1CCc2c(sc3c2c(=O)n(-c2cc(Cl)ccc2C)c(=O)n3Cc2ccccc2F)C1 -29.5%, Cc1ccc(CNC(=O)CCCc2nnc3n(C)c(=O)c4sccc4n23)cc1 -15.3%, O=C(NCCc1ccc(Cl)cc1)c1cc(-c2ccc(Cl)cc2)n[nH]1 -20%, CCC(C)NC(=O)c1ccc2nc(CCc3ccccc3)oc2c1 (stereo not drawn) -10.7%, Cc1ccc(NC(=O)C(=O)NCC(c2ccc3c(c2)OCO3)N2CCOCC2)cc1C (stereo not drawn) -6.34%, COc1ccc(OCC(=O)OCc2cc(=O)n3nc(C4CC4)sc3n2)cc1 -7.7%
